Assay results reported in the supplement of paper PMC12009370.
Some of the results follow. Single values are uncertain, as repeats are few or missing.

What was measured:
IMR-32 [1] = assay: drug sensitivity score (DSS), single drug with vehicle (DSS (score)); higher = more cytotoxic; extreme values may be limits of the assay; conditions: 72 h; co-treatment: vehicle (DMSO)
SK-N-AS [2] = assay: as above; conditions: 72 h; co-treatment: vehicle (DMSO)
SK-N-AS [3] = assay: drug sensitivity score (DSS) in combination with SL-176 (DSS (score)); higher = more cytotoxic; extreme values may be limits of the assay; conditions: 72 h; co-treatment: SL-176 11.2 uM (IC25 in IMR-32)
IMR-32 [4] = assay: as above; conditions: 72 h; co-treatment: SL-176 11.2 uM (IC25 in IMR-32)
SK-N-AS [5] = assay: drug sensitivity score (DSS) in combination with GSK2830371 (DSS (score)); neuroblastoma lines; SL-176 and GSK2830371 are WIP1 inhibitors; higher = more cytotoxic; extreme values may be limits of the assay; conditions: 72 h; co-treatment: GSK2830371 at IC25 in IMR-32
IMR-32 [6] = assay: as above; conditions: 72 h; co-treatment: GSK2830371 at IC25 in IMR-32
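For drug sensitivity score (DSS) in combination with GSK2830371 in this document: neuroblastoma cells in 384-well plates, each compound at five concentrations, luminescence read-out, DSS derived from fitted concentration-response curve combining IC50 with minimum and maximum inhibition.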
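For drug sensitivity score (DSS) in combination with SL-176 in this document: cells in 384-well plates, luminescence read-out, each screening drug at five concentrations, DSS derived from the fitted concentration-response curve combining IC50 with minimum and maximum inhibition.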
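For drug sensitivity score (DSS), single drug with vehicle in this document: 384-well screen with five concentrations per compound and a luminescence read-out, DSS computed from the fitted dose-response curve combining IC50 with minimum and maximum inhibition.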

Row | Compound | drug sensitivity score (IMR-32 [1]) | drug sensitivity score (SK-N-AS [2]) | drug sensitivity score (SK-N-AS [3]) | drug sensitivity score (IMR-32 [4]) | drug sensitivity score (SK-N-AS [5]) | drug sensitivity score (IMR-32 [6])
1 | Nc1cccc2c1CN(C1CCC(=O)NC1=O)C2=O (stereo not given) [Lenalidomide] | 9.8 | 0 | 0 | 6.6 | 0 | 8.1
2 | COc1cc([C@@H]2c3cc4c(cc3[C@@H](O[C@@H]3O[C@@H]5CO[C@@H](c6cccs6)O[C@H]5[C@H](O)[C@H]3O)[C@H]3COC(=O)[C@H]23)OCO4)cc(OC)c1O [Teniposide] | 0 | 0 | 0 | 0 | 0 | 0
3 | C[C@H](Nc1ncnc2[nH]cnc12)c1cc2ccc(F)cc2nc1-c1ccccn1 | 0 | 0 | 0 | 0 | 0 | 0
4 | COc1ccc2[nH]cc(/C=C3\C(=O)Nc4ccc(NC(=O)CCN5CCCCC5)cc43)c2c1 | 7.9 | 7.6 | 9 | 13.7 | 7.6 | 10.4
5 | CO[C@H](C(=O)[C@@H](O)[C@@H](C)O)[C@@H]1Cc2cc3cc(O[C@H]4C[C@@H](O[C@@H]5C[C@@H](O)[C@H](O)[C@@H](C)O5)[C@H](O)[C@@H](C)O4)c(C)c(O)c3c(O)c2C(=O)[C@H]1O[C@H]1C[C@@H](O[C@@H]2C[C@@H](O)[C@@H](O[C@@H]3C[C@](C)(O)[C@H](O)[C@@H](C)O3)[C@@H](C)O2)[C@H](O)[C@@H](C)O1 [Plicamycin] | 19.2 | 5.6 | 6.1 | 10.1 | 5.7 | 15.8
6 | Cc1cccc(-c2[nH]c(CNc3ccccc3F)nc2-c2ccc3ncnn3c2)n1 | 0 | 0 | 0 | 0 | 0 | 0
7 | CCc1cc2c(cc1N1CCC(N3CCOCC3)CC1)C(C)(C)c1[nH]c3cc(C#N)ccc3c1C2=O [Alectinib] | 2.3 | 3.5 | 2.8 | 1.3 | 2.6 | 2.8
8 | CNC(=O)c1nn(C)c2c1C(C)(C)Cc1cnc(Nc3ccc(N4CCN(C)CC4)cc3)nc1-2 [Milciclib] | 18.5 | 14 | 13.6 | 21.6 | 15.3 | 21.2
9 | C=CCc1cccc(/C=N/NC(=O)CN2CCN(Cc3ccccc3)CC2)c1O | 8.6 | 1.4 | 2.4 | 11.1 | 1.9 | 8.8
10 | CO[C@@H]1[C@H](N(C)C(=O)c2ccccc2)C[C@H]2O[C@]1(C)n1c3ccccc3c3c4c(c5c6ccccc6n2c5c31)C(=O)NC4 [Midostaurin] | 22.4 | 12.7 | 9.5 | 23.2 | 10.7 | 23.8
11 | CCCCOc1nc(N)c2c(n1)N(Cc1cccc(CN3CCCC3)c1)CC(=O)N2 [Vesatolimod] | 0.1 | 0 | 0 | 0 | 0 | 0
12 | FC(F)c1nc2ccccc2n1-c1nc(N2CCOCC2)nc(N2CCOCC2)n1 | 8.9 | 10.7 | 10 | 7 | 10.2 | 10.3
13 | Nc1ncnc2c1nc(N)n2[C@@H]1O[C@H](CO)[C@@H](O)[C@H]1O [8-amino-adenosine] | 21.7 | 25.8 | 25.1 | 21.3 | 25.6 | 22.3
14 | Cc1cc(Nc2ncc(Cl)c(Nc3ccccc3S(=O)(=O)C(C)C)n2)c(OC(C)C)cc1C1CCNCC1 [Ceritinib] | 0 | 2.6 | 4.2 | 7.5 | 3.1 | 0
15 | CC(C)[C@H]1C(=O)N[C@@H](CCCNC(=N)N)C(=O)NCC(=O)N[C@@H](CC(=O)O)C(=O)N[C@H](Cc2ccccc2)C(=O)N1C [Cilengitide] | 0 | 0 | 0 | 0 | 0.7 | 0
16 | CC(C)[C@@H](CS(=O)(=O)C(C)C)N1C(=O)[C@@](C)(CC(=O)O)C[C@H](c2cccc(Cl)c2)[C@H]1c1ccc(Cl)cc1 | 17.5 | 0 | 0 | 20.5 | 0 | 23.5
17 | Cc1ccc(F)c(NC(=O)Nc2ccc(-c3cccc4[nH]nc(N)c34)cc2)c1 [Linifanib] | 0 | 0 | 0 | 0 | 0 | 0
18 | CN(C)C[C@@H]1CCn2cc(c3ccccc32)C2=C(C(=O)NC2=O)c2cn(c3ccccc23)CCO1 [Ruboxistaurin] | 9 | 8.2 | 7.6 | 9 | 7.9 | 11.4
19 | COc1cc2c(Oc3ccc4[nH]c(C)cc4c3F)ncnc2cc1OCCCN1CCCC1 [Cediranib] | 0 | 0 | 0 | 0 | 0 | 0
20 | CNC(=O)c1ccccc1Nc1cc(Nc2ccc(N3CCOCC3)cc2OC)ncc1C(F)(F)F | 8.7 | 10.1 | 11.4 | 6.5 | 11.1 | 14.9
21 | C[C@]12CC[C@H](O)CC1=CC[C@@H]1[C@@H]2CC[C@]2(C)C(c3cccnc3)=CC[C@@H]12 [Abiraterone] | 0 | 1.2 | 0.7 | 0 | 0 | 1
22 | N#CC1(c2ccc(NC(=O)c3cccnc3NCc3ccncc3)cc2)CCCC1 [Apatinib] | 0 | 0 | 0 | 0 | 0 | 0
23 | FC(F)(F)c1ccc(/C=C/c2nc(COc3ccc(CCCCn4ccnn4)cc3)co2)cc1 [Mubritinib] | 0 | 4.2 | 2.2 | 4.3 | 3 | 1.1

Row | Compound | drug sensitivity score (IMR-32 [1]) | drug sensitivity score (SK-N-AS [2]) | drug sensitivity score (SK-N-AS [3]) | drug sensitivity score (IMR-32 [4]) | drug sensitivity score (SK-N-AS [5]) | drug sensitivity score (IMR-32 [6])
24 | Cn1ncc(Cl)c1-c1cc(C(=O)N[C@H](CN)Cc2ccc(F)c(F)c2)oc1Cl [Uprosertib] | 0.4 | 0 | 0 | 0.5 | 0 | 0
25 | CC(=O)c1cnc2ccc(-c3cc(Cl)c(O)c(Cl)c3)nc2c1N[C@H]1CC[C@H](CN(C)C)CC1 | 26.6 | 16.1 | 16 | 26.7 | 16.2 | 27.9
26 | CN1CCN(CCOc2cc(OC3CCOCC3)c3c(Nc4c(Cl)ccc5c4OCO5)ncnc3c2)CC1 [Saracatinib] | 6.1 | 4.8 | 4.4 | 3.7 | 4.5 | 10.7
27 | O=C1NC(=O)[C@@H](c2cn3c4c(cccc24)CCC3)[C@@H]1c1c[nH]c2ccccc12 [Tivantinib] | 9.1 | 9 | 8.2 | 9.7 | 8.4 | 10
28 | NC(=O)NO [Hydroxyurea] | 11.9 | 6.6 | 6.1 | 9 | 6.5 | 10.6
29 | CN1C(=O)N[C@H](Cc2c[nH]c3c(Cl)cccc23)C1=O [Necrostatin 2] | 0 | 0 | 0 | 0 | 0 | 0
30 | Nc1ccn([C@@H]2O[C@H](CO)[C@@H](O)C2(F)F)c(=O)n1 [Gemcitabine] | 26.7 | 17.5 | 16.1 | 24.2 | 17.6 | 30.1
31 | Cc1cccc(-c2nn3c(c2-c2ccnc4ccc(C(N)=O)cc24)CCC3)n1 [Galunisertib] | 0 | 0 | 0 | 0 | 0 | 0
32 | COc1cc2c(Oc3ccc(NC(=O)C4(C(=O)Nc5ccc(F)cc5)CC4)cc3F)ccnc2cc1OCCCN1CCOCC1 [Foretinib] | 6.1 | 2.9 | 1.6 | 8.5 | 3.4 | 4.9
33 | Nc1nc(Nc2ccc3c(c2)CC[C@@H](N2CCCC2)CC3)nn1-c1cc2c(nn1)-c1ccccc1CCC2 | 5.1 | 5.6 | 5.4 | 5.6 | 5.5 | 4.4
34 | C[C@@H]1COC(Nc2ccc3ncnc(Nc4ccc(OCc5nccs5)c(Cl)c4)c3c2)=N1 [Varlitinib] | 2.6 | 3.3 | 3.4 | 0 | 3.2 | 3.8
35 | COc1cc2nccc(Oc3ccc(NC(=O)NC4CC4)c(Cl)c3)c2cc1C(N)=O [Lenvatinib] | 0 | 0 | 0 | 1.2 | 0 | 1.3
36 | Cn1cc(-c2cnn3c(N)c(Br)c([C@@H]4CCCNC4)nc23)cn1 | 3.1 | 3.3 | 3.7 | 3.8 | 4.5 | 4.3
37 | N#Cc1ccnc(N2C(=O)CC[C@H]2C(=O)N(c2cncc(F)c2)[C@H](C(=O)NC2CC(F)(F)C2)c2ccccc2Cl)c1 [Ivosidenib] | 0.6 | 0 | 0.1 | 0 | 0 | 0
38 | COc1cccc2c1c(O)c(C(=O)N(C)c1ccc(C(F)(F)F)cc1)c(=O)n2C [Tasquinimod] | 0 | 0 | 0 | 0 | 0 | 0
39 | Nc1nc2cc(-c3ccc4ncc(C(=O)N5CCOCC5)n4c3)ccc2o1 [Serabelisib] | 1.1 | 5.2 | 4.1 | 1.6 | 4.9 | 5.2
40 | CC[C@@H]1C(=O)N(C)c2cnc(Nc3ccc(C(=O)N[C@H]4CC[C@H](N5CCN(CC6CC6)CC5)CC4)cc3OC)nc2N1C(C)C [Volasertib] | 20.9 | 18.7 | 20.2 | 21.4 | 20 | 21.6
41 | CC[C@H](C)C(=O)O[C@H]1C[C@@H](C)C=C2C=C[C@H](C)[C@H](CC[C@@H]3C[C@@H](O)CC(=O)O3)[C@H]21 [Lovastatin] | 1.8 | 0 | 0 | 0 | 0 | 3.6
42 | NC[C@@](O)(c1ccc(Cl)cc1)c1ccc(-c2cn[nH]c2)cc1 | 5 | 3.5 | 3.9 | 4.7 | 1.9 | 6.9
43 | C=CC(=O)Nc1cccc(Nc2nc(Nc3ccc(OCCOC)cc3)ncc2F)c1 [Spebrutinib] | 1.8 | 1.3 | 0.4 | 0 | 1.4 | 3.5
44 | CCc1nc(C(N)=O)c(Nc2ccc(N3CCC(N4CCN(C)CC4)CC3)c(OC)c2)nc1NC1CCOCC1 [Gilteritinib] | 0.3 | 2.2 | 4 | 1.9 | 1.7 | 0.1
45 | S=C(NCc1ccc2c(c1)OCO2)N1CCN(c2ncnc3c2oc2ccccc23)CC1 [Amuvatinib] | 2.7 | 3 | 2.5 | 2.9 | 4.2 | 2.4
